Data taken from article PMC4336329 (PLoS ONE, 2015).
About 2,200 (0.71%) of roughly 310,000 compounds showed an effect of 50% or more. Effects have a minus sign here. Some of the results follow.

What follows are compounds tested against human ether-à-go-go-related gene (hERG) potassium channel (human, UniProt Q12809) (assay: primary screen, population patch clamp on CHO cells stably expressing hERG).
Sequence of human ether-à-go-go-related gene (hERG) potassium channel (Q12809 whole entry, looked up): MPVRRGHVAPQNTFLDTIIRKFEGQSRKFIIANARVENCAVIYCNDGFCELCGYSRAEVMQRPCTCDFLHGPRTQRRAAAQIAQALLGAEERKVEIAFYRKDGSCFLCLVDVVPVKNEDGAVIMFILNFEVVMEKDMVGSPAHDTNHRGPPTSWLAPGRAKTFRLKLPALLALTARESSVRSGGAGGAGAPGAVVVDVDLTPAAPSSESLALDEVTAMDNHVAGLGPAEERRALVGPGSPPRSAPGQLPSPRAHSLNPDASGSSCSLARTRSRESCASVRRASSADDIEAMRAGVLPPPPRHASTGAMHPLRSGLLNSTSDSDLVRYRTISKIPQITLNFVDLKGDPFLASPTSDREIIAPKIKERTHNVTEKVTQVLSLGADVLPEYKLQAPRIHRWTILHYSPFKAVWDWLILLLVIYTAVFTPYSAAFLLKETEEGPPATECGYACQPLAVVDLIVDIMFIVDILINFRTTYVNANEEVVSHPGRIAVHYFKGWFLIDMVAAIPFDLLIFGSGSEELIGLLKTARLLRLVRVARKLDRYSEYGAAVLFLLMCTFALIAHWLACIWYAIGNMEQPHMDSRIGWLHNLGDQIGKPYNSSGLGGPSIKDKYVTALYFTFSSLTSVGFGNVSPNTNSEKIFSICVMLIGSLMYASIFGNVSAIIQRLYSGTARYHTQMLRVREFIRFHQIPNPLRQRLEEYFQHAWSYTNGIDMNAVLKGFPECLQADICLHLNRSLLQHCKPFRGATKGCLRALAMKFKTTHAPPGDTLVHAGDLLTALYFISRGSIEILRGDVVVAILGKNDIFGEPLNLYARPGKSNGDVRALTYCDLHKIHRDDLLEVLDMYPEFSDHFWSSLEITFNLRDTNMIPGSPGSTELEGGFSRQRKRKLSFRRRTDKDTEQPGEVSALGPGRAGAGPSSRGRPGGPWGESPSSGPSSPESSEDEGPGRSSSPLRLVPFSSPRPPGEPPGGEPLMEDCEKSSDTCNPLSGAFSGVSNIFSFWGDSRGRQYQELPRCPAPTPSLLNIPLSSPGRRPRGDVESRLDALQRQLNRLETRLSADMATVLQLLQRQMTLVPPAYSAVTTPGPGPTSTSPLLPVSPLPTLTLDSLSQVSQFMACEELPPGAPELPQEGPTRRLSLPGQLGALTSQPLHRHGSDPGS

Structure (SMILES) | hERG current change (%, negative = inhibition) at 1uM [%]
Cc1ccc2sc(N(CCCN(C)C)C(=O)CN3C(=O)c4ccccc4C3=O)nc2c1C.Cl | 4.92
Nc1nc(O)c(CC(=O)O)s1 | 16.9
COc1ccc(N(CC(=O)NN=C2CCN(C)CC2)S(=O)(=O)c2ccccc2)c(OC)c1 | 15.7
CCOC(=O)C1CCN(C(=O)Nc2ccc(OC(F)(F)F)cc2)CC1 | -8.34
FC(F)(F)c1cccc(NCc2cn3cccnc3n2)c1 | 5.36
COc1ccccc1NC(=O)COc1ccc(Br)cc1CNCCCN1CCOCC1.Cl | -3.06
Cc1cccc2cc(C#N)c(NCCNC(=O)COc3ccccc3)nc12 | 26.4
C=CCOC(=O)Nc1snnc1C | 1.92
Nc1c(-c2ccccc2)c(CN2CCOCC2)nn1-c1ccc(F)cc1 | 3.39
O=C(NC(=S)Nc1ccccc1N1CCCCC1)c1cccs1 | 16.2
O=C(CSCc1ccccc1Cl)NNC(=O)c1ccccc1 | 11.2
Cc1ccccc1C(=O)NCCc1nnc(SCC(=O)Nc2nc(-c3ccccc3)cs2)n1C | 6.47
COc1ccc(/C=N/NC(=S)Nc2ccccc2)cc1COc1cccc(C)c1C | 17.9
COc1ccc(NC(=O)c2cccnc2Nc2ccc(OC)cc2)cc1 | 16.9
O=C1CCC(=O)N1CN(C(=O)c1ccco1)c1ccc(Cl)c(Cl)c1 | 10
O=C(CN1C(=O)CCC1=O)Nc1ccc2c3c(cccc13)CC2 | -6.41
COc1ccccc1C(=O)NNC(=O)C(=O)NC1CCCCC1 | 17.9
CC(=O)Nc1ccc(C(=O)NCC(=O)OCc2c(F)cccc2Cl)cc1 | 19.7
O=C(O)Cn1cc(/C=C2\C(=O)NC(=O)N(Cc3ccco3)C2=O)c2ccccc21 | 9.63
CCc1nc(N2CCNCC2)c(C#N)c2c1CSC(C)(C)C2 | 11.5
CO/N=C(\Cn1ncc(NC2CCCCC2)c(Br)c1=O)c1ccc(Cl)cc1 | -1.74
Cc1n[nH]c(=O)c2c(NC(=O)CSc3nncs3)oc(C)c12 | 19.7

Structure (SMILES) | hERG current change (%, negative = inhibition) at 1uM [%]
CC(C)(C#CC(O)(c1ccccc1)c1ccccc1)N1CCCCC1 | 11.8
Cc1nn(Cc2ccccc2Cl)c2sc(C(=O)NCCCn3ccnc3)cc12 | -15.1
COc1ccc(NC(=O)Nc2cc(C)cc(C)c2)cn1 | -0.814
COc1cc(/C=N/NC(=O)c2cccc([N+](=O)[O-])c2)ccc1OCc1ccc(C)cc1 | 4.93
O=S(=O)(c1cccs1)N1CCC(Cc2ccccc2)CC1 | 4.04
CCc1nc(SCC(=O)NCc2ccc(F)cc2)c2c(=O)n(C)c(=O)n(C)c2n1 | 11.2
CC(=O)OCC(=O)Nc1ccccc1C | 12.6
Cc1ccc(OCC(=O)Nc2ccc(N3CCCC3)cc2)cc1C | 12.1
O=C(Nc1c(F)cc(F)cc1Br)c1cc(-c2ccc(O)cc2)on1 | 8.3
COc1ccc(C(=O)NCC(c2ccc(F)cc2)N2CCOCC2)cc1S(=O)(=O)N1CCCC1 (stereo not shown) | 2.4
Brc1ccc2c(c1)OCCOCCOc1cc(Br)ccc1OCCOCCOCCO2 | -6.77
CSc1ncccc1C(=O)N1CCCC(C(=O)c2ccc3ccccc3c2)C1 (stereo not shown) | 3.33
CCC1CCCCN1C(=O)CSc1nc2ccsc2c(=O)n1Cc1ccccc1 (stereo not shown) | -8.37
O=C(COc1ccccc1[N+](=O)[O-])N/N=C/c1ccc[nH]1 | 14.3
COc1ccc(Nc2oc(COc3ccccc3F)nc2C#N)cc1 | 6.02
Cc1ccc(CN2CC(C(=O)Nc3ccc(C)cn3)CC2=O)cc1 (stereo not shown) | -4.82
S=C(NCc1ccncc1)Nc1ccc(Br)cc1Cl | 1.24
COc1cccc(CNC(=S)Nc2cc(C)ccc2C)c1 | 18.9
Cc1cc(C)cc(NC(=O)C(=O)NCC2CCCO2)c1 (stereo not shown) | -9.95
Cc1ccccc1OCC(O)Cn1nnc2ccccc21 (stereo not shown) | 16.4
O=C(CC(=O)Nc1ccccc1F)Nc1ccccc1F | 12.9
CC(C)(C)c1ccc(-c2nc(C#N)c(NCc3cccnc3)o2)cc1 | 14.2

Structure (SMILES) | hERG current change (%, negative = inhibition) at 1uM [%]
COc1cc(C(=O)NC(C)C2CC3CCC2C3)cc(OC)c1OC (stereo not shown) | 11.1
C#C[C@]1(O)CC[C@H]2[C@@H]3CCC4=Cc5oncc5C[C@]4(C)[C@H]3CC[C@@]21C | 11.2
COc1ccccc1C(CNC(=O)CSc1ccc2ccccc2c1)N(C)C (stereo not shown) | -8.51
CCN(CC)CCNC(=O)CNC(=S)N(CCCN1CCOCC1)Cc1cccs1 | 15.4
CN1CCC(=NNc2ccc(S(=O)(=O)N3CCOCC3)cc2[N+](=O)[O-])CC1 | -1.7
CN1CCN(c2ccc([N+](=O)[O-])cc2C(=O)c2ccc(Cl)cc2)CC1 | -24.3
Brc1ccc(-c2cnco2)cc1 | 9.53
COc1ccc(NS(=O)(=O)c2cccc(C(=O)N/N=C(\C)c3ccncc3)c2)cc1 | 6.33
O=C(NCc1ccc2c(c1)OCO2)c1cccc2c1C(=O)N(C1CCCCC1)C2 | 11.3
CCc1cc2c(N[C@@H](C)C(=O)O)ncnc2s1 | 13
Cc1ccc(NC(=O)CSc2n[nH]c(-c3ccncc3)n2)cc1 | -2.68
COC(=O)c1ccc(N2CCN(C(C)=O)CC2)c(NC(=O)c2cccnc2)c1 | 6.85
CCN(CC)S(=O)(=O)c1ccc(NS(=O)(=O)c2cccs2)cc1 | -8.97
COCC1CCCN(Cc2cn(-c3ccccc3)nc2-c2ccc3c(c2)OCO3)C1 (stereo not shown) | -20.2
CCOC(=O)n1c(O)c(N=NC(N)=S)c2cc(C)ccc21 | 11.7
CCNC(=O)COc1ccc(F)cc1C(=O)c1cnn(-c2ccccc2)c1 | 0.95
Cc1ccc(C)c(S(=O)(=O)Nc2ccc(C(=O)N3CC(C)OC(C)C3)cc2)c1 (stereo not shown) | 9.09
CCC1CCCCN1Cc1nc2c(c(=O)n(C)c(=O)n2C)n1CC(C)C (stereo not shown) | 6.92
CN(C)C(=O)c1c2c(nc3ccccc13)-c1ccccc1CC2 | -0.246
O=C1CSC(=Nc2ccc(O)cc2)N1c1ccc(O)cc1 | 9.51
